Measured values from US20080200461A1, “MODULATORS OF ACETYL-COENZYME A CARBOXYLASE AND METHODS OF USE THEREOF” (Cropsolution, Inc., priority 2007, published 2008).

Biological target: yeast BC domain containing a K73R mutation (Saccharomyces cerevisiae, UniProt Q00955, K73R)
Format: binding
Protocol: The soraphen binding pocket contains a tryptophan residue. Thus, tryptophan fluorescence may be used to directly monitor binding of a ligand to this site. […] We conducted a similar assay in a 96-well format. Briefly, 200 nM protein in 100 mM Tris pH 8 containing 100 mM NaCl and 0.01% Tween 20 (v/v) was incubated in the presence of various amounts of test compounds dissolved in DMSO (1% v/v final concentration). Tryptophan fluorescence at […] was measured in a Pherastar plate reader (BMG Labtech) using 280 nm excitation.

Compound	Effect on tryptophan fluorescence of yeast BC domain containing K73R mutation
CC[N+](CC)(CCCCN(Cc1cc(C)cc(C)c1)Cc1cc(C)cc(C)c1)Cc1cc(C)cc(C)c1.[Br-] [Compound 28, Diethyl(3,5-dimethylbenzyl)[bis-(3,5-dimethylbenzyl)aminobutyl]ammonium formate]	no effect
CO[C@H]1CCCC[C@@H](c2ccccc2)OC(=O)[C@@H](C)[C@@]2(O)O[C@H]([C@@H](C)[C@H](O)[C@H]2OC)[C@@H](C)/C=C/[C@H]1OC [soraphen A, Soraphen A, reference compound]	no effect
